# Laboratory results from the supplement of paper PMC4604168 (melanoma cell lines).
# The list shows a part of the results. Single values are uncertain, as repeats are few or missing.
# Test system: WM115
# Assay: cell count relative to DMSO control; melanoma cells; higher = more viable cells
# Details: library dose: standard library concentration; 72 h
# 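Further: cells treated in 1,536-well plates, then fixed and DAPI-stained, with nuclei counted from automated high-throughput microscope images.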
row,Compound,cell count [%]
1,"C[As](C)SC[C@H](NC(=O)CC[C@H](N)C(=O)O)C(=O)NCC(=O)O [Darinaparsin] + O=c1cc(-c2cccc3c2Sc2ccccc2S3)oc(N2CCOCC2)c1 [KU55933] (first compound 2 µM, partner dose 5 µM)",63.8
2,"Cn1cc(C2=C(c3cn(C4CCN(Cc5ccccn5)CC4)c4ccccc34)C(=O)NC2=O)c2ccccc21 [Enzastaurin] + Cc1cc(N2CCOCC2)cc2[nH]c(-c3c(NC[C@@H](O)c4cccc(Cl)c4)cc[nH]c3=O)nc12 [BMS536924] (first compound 4 µM, partner dose 1 µM)",111
3,"Cn1cc(C2=C(c3cn(C4CCN(Cc5ccccn5)CC4)c4ccccc34)C(=O)NC2=O)c2ccccc21 [Enzastaurin] + NC(=O)Nc1cc(-c2cccc(F)c2)sc1C(=O)N[C@H]1CCCNC1 [AZD7762] (first compound 4 µM, partner dose 0.1 µM)",68.9
4,"N.N.[Cl][Pt][Cl] [cisplatin] + CC(C)(C)c1cnc(CSc2cnc(NC(=O)C3CCNCC3)s2)o1 [SNS-032] (first compound 8 µM, partner dose 0.05 µM)",78.6
5,"N.N.[Cl][Pt][Cl] [cisplatin] + OCCn1cc(-c2cnc3nnn(Cc4ccc5ncccc5c4)c3n2)cn1 [PF04217903] (first compound 8 µM, partner dose 5 µM)",101
6,"Cn1cc(C2=C(c3cn(C4CCN(Cc5ccccn5)CC4)c4ccccc34)C(=O)NC2=O)c2ccccc21 [Enzastaurin] + N.N.[Cl][Pt][Cl] [cisplatin] (first compound 4 µM, partner dose 8 µM)",110
7,"C[C@]12O[C@H](C[C@]1(O)CO)n1c3ccccc3c3c4c(c5c6ccccc6n2c5c31)CNC4=O [Lestaurtinib] + OCCn1cc(-c2cnc3nnn(Cc4ccc5ncccc5c4)c3n2)cn1 [PF04217903] (first compound 0.02 µM, partner dose 5 µM)",86.8
8,"Cn1cc(C2=C(c3cn(C4CCN(Cc5ccccn5)CC4)c4ccccc34)C(=O)NC2=O)c2ccccc21 [Enzastaurin] + COc1ccc(Cl)c(Nc2nc3ccccc3nc2NS(=O)(=O)c2cccc(NC(=O)C(C)(C)N)c2)c1 [XL147] (first compound 4 µM, partner dose 4 µM)",122
9,"C[As](C)SC[C@H](NC(=O)CC[C@H](N)C(=O)O)C(=O)NCC(=O)O [Darinaparsin] + O=C(O)c1ccc(-c2c[nH]c3ncc(-c4ccccc4)cc23)cc1C1CCCC1 [GSK650394] (first compound 2 µM, partner dose 0.8 µM)",79.2
10,"C[As](C)SC[C@H](NC(=O)CC[C@H](N)C(=O)O)C(=O)NCC(=O)O [Darinaparsin] + COc1cc2ncnc(Nc3ccc(Oc4ccccc4)cc3)c2cc1OC [SrcI1] (first compound 2 µM, partner dose 10 µM)",52.7
11,"N.N.[Cl][Pt][Cl] [cisplatin] + C=CCNC1=C2C[C@@H](C)C[C@H](OC)[C@H](O)[C@@H](C)/C=C(\C)[C@H](OC(N)=O)[C@@H](OC)/C=C\C=C(/C)C(=O)NC(=CC1=O)C2=O [Tanespimycin] (first compound 8 µM, partner dose 0.01 µM)",27.5
12,"C[C@]12O[C@H](C[C@]1(O)CO)n1c3ccccc3c3c4c(c5c6ccccc6n2c5c31)CNC4=O [Lestaurtinib] + Cn1c(Nc2ccc(C(F)(F)F)cc2)nc2cc(Oc3ccnc(-c4ncc(C(F)(F)F)[nH]4)c3)ccc21 [CHIR265] (first compound 0.02 µM, partner dose 0.4 µM)",37.1
